# ± gives the standard deviation of the averaged measurements. Over roughly 33,000 sequences, “E-score (dimensionless, -0.5 to 0.5)” has its median near -0.046; the highest 2% begin near 0.36. The list shows a part of the results.
# Test system: T1, SpTbr T-box DNA-binding domain (GST fusion)
# T1 sequence: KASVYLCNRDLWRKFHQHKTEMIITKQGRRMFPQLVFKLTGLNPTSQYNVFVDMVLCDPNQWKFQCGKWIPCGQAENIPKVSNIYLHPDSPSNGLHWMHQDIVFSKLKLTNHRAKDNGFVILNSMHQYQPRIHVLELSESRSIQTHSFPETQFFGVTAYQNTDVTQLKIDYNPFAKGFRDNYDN
# Test: PBM E-score of 8-mer (E-score (dimensionless, -0.5 to 0.5)); Tbr is Tbrain of the sea star Patiria miniata (Pm) or the sea urchin Strongylocentrotus purpuratus (Sp); higher = stronger binding preference; most listed sequences are background and not binding sites
# Details: the construct has about 5 more residues each side
# Summary of the method: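 Universal Agilent oligonucleotide arrays, made double-stranded by primer extension, were incubated with 200 nM GST-fused Tbr T-box DNA-binding domain in PBS (pH 7.5). The protein was expressed in BL21 E. coli at 20 °C and purified by glutathione affinity chromatography. After scanning and quantification, the Universal PBM Analysis Suite assigned an enrichment E-score to each ungapped 8-mer, averaged over duplicate arrays.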
row,Sequence,PBM E-score of 8-mer
1,CGACAATC,0.187 ± 0.014
2,CTTGAAGC,-0.0884 ± 0.014
3,GAACTCAC,0.041 ± 0.0073
4,ATAGGCGC,0.263 ± 0.0076
5,CGGGTCTA,0.0644 ± 0.047
6,AGTAGTGG,-0.0265 ± 0.028
7,ACTGACCC,-0.251 ± 0.056
8,AGGCGGGC,0.0171 ± 0.099
9,ACATGTCA,0.219 ± 0.053
10,AATTAGAA,-0.104 ± 0.028
11,ATAAAGGC,-0.081 ± 0.012
12,ACCCGTAC,-0.238 ± 0.044
13,AGAACTCA,-0.148 ± 0.087
14,CCAAACCA,-0.089 ± 0.031
15,GGCGCACC,0.0139 ± 0.06
16,AGACGTAT,0.0364 ± 0.00074
17,AGTGATCA,-0.0115 ± 0.043
18,GTTATTAA,0.0151 ± 0.088
19,AACTGCAG,-0.0867 ± 0.025
20,TAGGATCA,-0.332 ± 0.033
21,AACGCGAG,0.13 ± 0.021
22,GACACTTA,0.393 ± 0.0065
23,GCTGCAGA,-0.00912 ± 0.096
24,ATGTCAAA,0.113 ± 0.037
25,AAACACTT,0.335 ± 0.039

row,Sequence,PBM E-score of 8-mer
1,GCCCCGGA,-0.197 ± 0.11
2,GCAACCCA,0.0243 ± 0.058
3,ACACGCAA,0.174 ± 0.025
4,AGTTTGAT,-0.0263 ± 0.017
5,CAAAGTGA,0.295 ± 0.047
6,CAACCCCA,0.0392 ± 0.039
7,CAGACACC,0.3 ± 0.028
8,GGCAACGA,0.085 ± 0.022
9,ACGATACG,-0.0294 ± 0.055
10,CGGTCTCC,-0.159 ± 0.064
11,CGAAGGGA,0.0616 ± 0.042
12,CTAGTCCA,-0.134 ± 0.018
13,CCCGACCG,-0.0137 ± 0.042
14,GAATCGGA,0.0666 ± 0.017
15,CCGCAGCA,-0.0663 ± 0.01
16,ATTACCTG,-0.134 ± 0.052
17,CTTTTAAA,-0.241 ± 0.039
18,AAGGCCGT,-0.165 ± 0.092
19,AGGCGCCG,0.168 ± 0.026
20,AGTGTTAC,0.3741 ± 0.0036
21,ACCGCATG,-0.287 ± 0.016
22,ACGCTTGA,0.206 ± 0.012
23,AAATGGCA,0.0899 ± 0.017
24,GTAGTATA,-0.109 ± 0.025
25,AAGGCTTA,-0.0667 ± 0.038

row,Sequence,PBM E-score of 8-mer
1,CATGCTCG,-0.0619 ± 0.081
2,CAAAGGGC,-0.161 ± 0.046
3,ATGGGACG,-0.0461 ± 0.012
4,ATGTTAAT,0.0604 ± 0.061
5,GAGGGACA,0.118 ± 0.045
6,ATTCTAAA,-0.215 ± 0.0057
7,CCAGCCGC,-0.205 ± 0.052
8,CCATTGAC,-0.0228 ± 0.064
9,AGATTAAA,-0.143 ± 0.14
10,TCCGTTCA,-0.018 ± 0.06
11,AGAGTACG,-0.0341 ± 0.067
12,AACGTAAT,-0.129 ± 0.0037
13,AGGCTCGC,0.0433 ± 0.044
14,CGAAGGAA,-0.0832 ± 0.033
15,ATCGGAGC,-0.123 ± 0.085
16,ATAAGGGA,-0.205 ± 0.015
17,GCCCTGGA,-0.24 ± 0.0052
18,CCCGATGC,-0.16 ± 0.065
19,ACACAAAC,0.108 ± 0.077
20,ACACCAGT,0.296 ± 0.033
21,AGAACCCA,-0.208 ± 0.071
22,GAGGACCA,-0.1805 ± 0.00028
23,TATTTGGA,-0.13 ± 0.0051
24,GGCTATGA,-0.0251 ± 0.045
25,CATAGGAA,-0.314 ± 0.027

row,Sequence,PBM E-score of 8-mer
1,CCCAGACA,0.0295 ± 0.036
2,CCACGAGA,-0.184 ± 0.043
3,AGTCCTCC,-0.266 ± 0.019
4,GCACTGAC,0.0176 ± 0.026
5,CGCGCAAC,0.173 ± 0.066
6,ATGGACCA,-0.214 ± 0.092
7,AATCTAAT,-0.123 ± 0.051
8,CGGCGGAA,-0.0399 ± 0.0019
9,GTGTGTTA,0.318 ± 0.021
10,ATCCGTGC,-0.132 ± 0.004
11,CTAGAGTA,-0.19 ± 0.021
12,ATCAATAG,-0.171 ± 0.053
13,CTCCCTCA,0.0512 ± 0.04
14,AACCCTTC,-0.185 ± 0.03
15,AATTCGTC,0.0742 ± 0.012
16,AAATGGGG,-0.142 ± 0.047
17,CCACGTTA,0.135 ± 0.014
18,ATAGGACA,-0.22 ± 0.018
19,ACTATCCA,-0.21 ± 0.023
20,CGCTGAGC,0.0396 ± 0.0024
21,CCTACGAC,-0.191 ± 0.027
22,TCGTAAAA,-0.0816 ± 0.072
23,ACACGGCC,0.0124 ± 0.046
24,CCAACCAA,-0.219 ± 0.0053
25,CAGCCCTC,-0.14 ± 0.053

row,Sequence,PBM E-score of 8-mer
1,AGGCGGTG,-0.0537 ± 0.076
2,ACTAGCCG,0.07 ± 0.092
3,CCTCTGCA,-0.1407 ± 0.00062
4,CTATGGCA,0.121 ± 0.042
5,TCATGCCA,0.103 ± 0.0093
6,CTCTCCAA,-0.105 ± 0.069
7,ATGGCACA,0.123 ± 0.011
8,CCGTTGAG,-0.204 ± 0.035
9,TCTTTTAA,0.0751 ± 0.08
10,CCGCGGGA,-0.0784 ± 0.0089
11,ACCGTAAG,-0.0128 ± 0.13
12,AAGTCTCG,0.114 ± 0.061
13,CAAAAGTA,-0.211 ± 0.036
14,ACTAACTA,0.0825 ± 0.013
15,CCGGAGGA,-0.234 ± 0.04
16,ATGGGCTA,-0.176 ± 0.062
17,AGTTGGGC,-0.0949 ± 0.04
18,GGTTTTTA,-0.261 ± 0.1
19,GACCGAAA,-0.0112 ± 0.019
20,ACAATAAA,-0.079 ± 0.077
21,CCCGTTAA,0.199 ± 0.032
22,GCTCGAGA,-0.0915 ± 0.021
23,ACGACGCT,0.0875 ± 0.036
24,ATAGCTAC,-0.238 ± 0.072
25,AACATTGG,0.05132 ± 0.00013

row,Sequence,PBM E-score of 8-mer
1,AGACATCA,-0.214 ± 0.003
2,CAGGGTTA,-0.0854 ± 0.0056
3,ACTGTCAC,0.35403 ± 0.00029
4,CGACGTCC,-0.196 ± 0.0025
5,GCTTATGA,-0.0928 ± 0.0089
6,GTTGTACA,0.0353 ± 0.025
7,GGCCATGA,-0.184 ± 0.0099
8,GCCGTTGA,0.00927 ± 0.026
9,CGGGGTCC,-0.256 ± 0.015
10,GCTCGATA,-0.079 ± 0.09
11,AGATCTCA,0.098 ± 0.054
12,GAGAACGA,0.207 ± 0.0027
13,AAGGGTCG,-0.186 ± 0.013
14,GTAGTGAC,0.241 ± 0.024
15,CGCATCCA,-0.213 ± 0.057
16,AGGCATTA,-0.0763 ± 0.073
17,CATCGACG,0.0886 ± 0.011
18,GGCTGTAA,0.0224 ± 0.033
19,TCTCTGCA,-0.159 ± 0.018
20,CCACATCG,0.111 ± 0.055
21,CGGGGATA,-0.111 ± 0.025
22,AAGTTGTA,0.0436 ± 0.03
23,AAACAACA,0.178 ± 0.0031
24,CGATTATC,0.0463 ± 0.1
25,ACGCCACC,0.25 ± 0.0077

row,Sequence,PBM E-score of 8-mer
1,ATAATTTG,-0.204 ± 0.024
2,TCTGAAGA,-0.167 ± 0.018
3,CCTCGACA,0.26 ± 0.054
4,CTGTCAGA,0.207 ± 0.025
5,CTACAGTA,-0.105 ± 0.041
6,CTGCAATC,-0.0331 ± 0.099
7,TAAGATGA,-0.0791 ± 0.032
8,ATCCGTAG,-0.155 ± 0.032
9,GACAATAC,0.0145 ± 0.01
10,ATGGAGAA,-0.283 ± 0.043
11,AGTCCGAC,-0.216 ± 0.072
12,AGAACGGA,-0.0262 ± 0.019
13,GGAAATAC,-0.0888 ± 0.075
14,AGCGTTAC,0.0783 ± 0.08
15,CCCCAGAC,-0.0515 ± 0.0094
16,ACGCAACG,0.0373 ± 0.028
17,ATATAGAC,-0.0857 ± 0.07
18,CACCGTAA,0.169 ± 0.084
19,AGTCGTTC,0.0123 ± 0.035
20,AGATGGAT,-0.207 ± 0.014
21,ACTCAAAA,0.00976 ± 0.07
22,CACCTCGA,0.44517 ± 8.5e-05
23,CCCAGGTC,-0.167 ± 0.0099
24,ATTCTTAC,-0.196 ± 0.076
25,CCTGCGCC,-0.128 ± 0.041

row,Sequence,PBM E-score of 8-mer
1,ATTAGAGG,-0.275 ± 0.043
2,AAAACTCG,-0.0274 ± 0.059
3,TCACTGAA,0.0446 ± 0.0092
4,CATCTCTC,0.115 ± 0.056
5,GATGGCAC,0.25 ± 0.0078
6,AGTCTGAC,-0.0997 ± 0.057
7,AAAACTGA,-0.279 ± 0.033
8,GGTGGGTA,-0.0909 ± 0.041
9,CGCGACCA,0.171 ± 0.08
10,CACGATTA,0.0382 ± 0.054
11,ATCCTTCG,-0.0928 ± 0.084
12,ACTCGAAT,-0.0346 ± 0.0051
13,CGTAGCGA,-0.0174 ± 0.011
14,AGATTATA,-0.0789 ± 0.018
15,AAACACGA,0.142 ± 0.018
16,ATTCTCCG,0.00222 ± 0.13
17,CACACGAG,0.152 ± 0.0068
18,ATTTTGTA,0.0194 ± 0.069
19,TCAGCGAA,0.0544 ± 0.067
20,CAGCTTCA,0.25 ± 0.0097
21,ATTGCGGA,0.0037 ± 0.042
22,CCGCAAGG,-0.0599 ± 0.044
23,CTAACGCA,0.234 ± 0.031
24,GAGTCCAC,-0.0179 ± 0.022
25,TATGAACA,-0.0802 ± 0.022

row,Sequence,PBM E-score of 8-mer
1,GCGAGGCA,0.213 ± 0.013
2,AAGACGCT,0.0268 ± 0.03
3,ATTTAATA,0.063 ± 0.024
4,AAATGGAA,-0.103 ± 0.0085
5,AAGAAGCA,-0.223 ± 0.034
6,GCGCTACC,0.295 ± 0.0067
7,TTATCAAA,-0.0294 ± 0.071
8,CGAGAAAA,0.238 ± 0.011
9,CTAATCGC,0.173 ± 0.021
10,GTGAGGTA,0.227 ± 0.019
11,CAGCCACC,0.138 ± 0.042
12,AGTAATAT,-0.0535 ± 0.011
13,CTCAGACC,-0.248 ± 0.03
14,CACAAAAG,0.0569 ± 0.073
15,CAGGGCTC,-0.407 ± 0.071
16,CTCGGGTC,-0.0239 ± 0.0073
17,AGGAGGCC,-0.296 ± 0.029
18,GAATATAA,-0.0655 ± 0.016
19,CGGTAATA,-0.248 ± 0.019

# From the supplement of paper PMC4166925
